According to PubChem BioAssay AID485294 (National Center for Advancing Translational Sciences (NCATS), 2010):
Out of some 370,000 compounds screened, about 150 (0.041%) were called active. The shares of active, inactive and inconclusive entries below differ from those in the screen. Calls follow the shape of the dose curve; as a rule, active = well fitted inhibition curve with a large enough effect; inconclusive = small, poorly fitted or top-dose-only effect; inactive = flat fitted curve, though single readings scatter. Potencies of inconclusive entries are left out as doubtful fits.

target: Beta-lactamase (Escherichia coli (strain K12)) (UniProt P00811); test: qHTS Inhibitors of AmpC Beta-Lactamase (assay with detergent); settings: AmpC hydrolysis of nitrocefin, absorbance 480 nm, 0.01% Triton; series mostly up to 114 µM; also: nearly all actives have a fitted effect of over 25% in size
Procedure, shortened: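 AmpC (5.3 nM in the dispensed reagent) in 20 mM phosphate pH 7.0 with 0.01% (detergent screen) or 0.0001% Triton X-100 was preincubated with compounds for 15 min at room temperature. Nitrocefin was then added from an 800 uM solution, and hydrolysis was followed at 480 nm.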
Potency is read from the fitted curve at half-maximal effect; tags tell the direction and shape of the fitted curve.

Chain of UniProt P00811 (P00811 whole entry, looked up): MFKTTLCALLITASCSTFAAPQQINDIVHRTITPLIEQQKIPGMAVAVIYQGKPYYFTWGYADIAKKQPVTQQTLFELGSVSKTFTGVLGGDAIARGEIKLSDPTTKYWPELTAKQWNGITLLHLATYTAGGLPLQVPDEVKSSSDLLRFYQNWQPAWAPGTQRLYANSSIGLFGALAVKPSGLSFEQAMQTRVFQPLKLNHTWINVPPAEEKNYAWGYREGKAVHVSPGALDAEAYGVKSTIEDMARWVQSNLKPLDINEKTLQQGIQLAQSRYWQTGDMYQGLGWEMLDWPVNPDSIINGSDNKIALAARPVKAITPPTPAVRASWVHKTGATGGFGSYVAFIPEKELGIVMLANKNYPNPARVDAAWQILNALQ

**Q.** How did the Potency turn out when `O=C(COc1nsnc1N1CCOCC1)N/N=C/c1ccccc1O` was run?
**A.** inactive

**Q.** How did the Potency turn out when `Cc1ccsc1C1NC(=O)c2c(sc3c2CCCC3)N1` (configuration not stated) was run?
**A.** inactive

**Q.** Which Potency does the source give for `CC1(C)Cc2c(cnn2-c2ccc(F)cc2)C(NC(=O)CCN2CCCCC2=O)C1` (configuration not stated) here?
**A.** inactive

**Q.** With `CC(C)(C)C(=O)C1=C(O)C(=O)N(Cc2ccccc2)C1c1ccccc1F` (configuration not stated) as the compound, how does the Potency read?
**A.** inconclusive [inhibitor, partial curve, poor fit]

**Q.** With `Cc1c(Cl)cccc1NC(=O)CCCCCN1C(=O)CCC1=O` as the compound, how does the Potency read?
**A.** inconclusive [inhibitor, full curve]

**Q.** `Cc1ccc(-n2c(C)c([N+](=O)[O-])c3ccc(O)c(CN(C)C)c32)cc1` was tested. Which Potency did it give?
**A.** inactive

**Q.** Which Potency does the source give for `CC(O)C(=O)NCCOCCOCCNC(=O)C(C)O` (configuration not stated) here?
**A.** inconclusive [inhibitor, partial curve, poor fit]

**Q.** For `O=C(Cn1cc2c(n1)CCCCC2)NCc1ccccn1`, which Potency is on record?
**A.** inconclusive [inhibitor, full curve]

**Q.** Which Potency does the source give for `O=C(CSc1nc2[nH]ncc2c(=O)n1-c1ccccc1)c1ccc2c(c1)OCCO2` here?
**A.** inconclusive [inhibitor, single point]

**Q.** How did the Potency turn out when `CC1(c2ccccc2)NC(=O)N(CC(=O)Nc2ccccc2N2CCCCC2)C1=O` (configuration not stated) was run?
**A.** inactive

**Q.** With `Cc1ccc(-n2c(N)c(C(=O)N3CCN(C)CC3)sc2=S)cc1` as the compound, how does the Potency read?
**A.** inconclusive [inhibitor, full curve]

**Q.** `CCc1ccc(C(=O)NNC(=O)c2cccc(N3C(=O)CCC3=O)c2)cc1` was tested. Which Potency did it give?
**A.** inconclusive [inhibitor, full curve, poor fit]

**Q.** How did the Potency turn out when `CCC1=NN2C(=N)/C(=C\c3cccn3-c3ccc(Cl)cc3)C(=O)N=C2S1` was run?
**A.** inconclusive [inhibitor, single point]

**Q.** How did the Potency turn out when `c1ccc(-c2ccn3nnnc3n2)cc1` was run?
**A.** inactive

**Q.** With `COc1ccc(CCNC(=O)C2CC(=O)N(c3ccccc3)C2)cc1OC` (configuration not stated) as the compound, how does the Potency read?
**A.** inconclusive [inhibitor, partial curve]

**Q.** How did the Potency turn out when `COC(=O)c1ccc(CSc2ccc3nnc(-c4ccccc4)n3n2)o1` was run?
**A.** inconclusive [inhibitor, full curve]

**Q.** With `Nc1ncc(Br)cc1S(=O)(=O)Nc1cc(C(F)(F)F)cc(C(F)(F)F)c1` as the compound, how does the Potency read?
**A.** inactive

**Q.** Which Potency does the source give for `Cn1c2ccccc2c2ncn(CCN3CCOCC3)c(=O)c21` here?
**A.** inconclusive [inhibitor, partial curve]

**Q.** `Cn1c(=O)[nH]c(=O)c2c1nc(SCC(O)CO)n2Cc1ccccc1Cl` (configuration not stated) was tested. Which Potency did it give?
**A.** inconclusive [inhibitor, full curve, poor fit]

**Q.** How did the Potency turn out when `Cc1ccc(C(=O)NC2CCCCC2)cc1` was run?
**A.** inconclusive [inhibitor, full curve, poor fit]

**Q.** For `COc1nc(C)ccc1-c1noc(-c2ccncc2)n1`, which Potency is on record?
**A.** inconclusive [inhibitor, partial curve]

**Q.** Which Potency does the source give for `CCC(=O)NC(c1ccccc1)c1nc2ccccc2[nH]1` (configuration not stated) here?
**A.** inactive

**Q.** `COc1ccc(-c2c3c([nH]c(=S)c2C#N)CCC3)cc1` was tested. Which Potency did it give?
**A.** inconclusive [inhibitor, single point]

**Q.** How did the Potency turn out when `Cn1c(=O)[nH]c(=O)c2c1nc(NCCCO)n2Cc1ccc(F)cc1` was run?
**A.** inconclusive [inhibitor, full curve]

**Q.** How did the Potency turn out when `COc1ccc(C(C)=O)cc1CSc1nc(Nc2ccc(F)c(F)c2)c2ccccc2n1` was run?
**A.** inactive

**Q.** With `Cc1cc(C(=O)N2CCCC(N3CCN(c4cccc(C(F)(F)F)c4)CC3)C2)nn1C` (configuration not stated) as the compound, how does the Potency read?
**A.** inactive

**Q.** How did the Potency turn out when `Cc1ccccc1-n1c(C)nnc1SCc1nc2ccccc2s1` was run?
**A.** inconclusive [inhibitor, full curve, poor fit]

**Q.** Which Potency does the source give for `O=C(NCCn1cc(SCc2ccccc2)c2ccccc21)c1c(F)cccc1F` here?
**A.** inconclusive [inhibitor, full curve]

**Q.** Which Potency does the source give for `CN(C)C(=O)COC(=O)/C=C/c1ccccc1[N+](=O)[O-]` here?
**A.** inconclusive [inhibitor, full curve, poor fit]

**Q.** For `Nc1nc2ccccc2nc1N`, which Potency is on record?
**A.** inactive

**Q.** For `CC(C)(CNc1ccc(S(=O)(=O)C(F)(F)F)cc1[N+](=O)[O-])N1CCOCC1`, which Potency is on record?
**A.** inactive

**Q.** With `CC(=O)Nc1cccc(-c2nnc(SCC(=O)c3cc([N+](=O)[O-])ccc3Cl)o2)c1` as the compound, how does the Potency read?
**A.** inactive

**Q.** `OCCn1c(CSc2nnc(-c3ccco3)n2-c2ccccc2)nc2ccc(Cl)cc21` was tested. Which Potency did it give?
**A.** inconclusive [inhibitor, partial curve]

**Q.** `COc1cccc(N2CCN(C(=O)c3ccc4nc(N5CCC(C)CC5)sc4c3)CC2)c1` was tested. Which Potency did it give?
**A.** inactive

**Q.** For `c1ccc(Oc2nc(N3CCOCC3)nc(N3CCOCC3)n2)cc1`, which Potency is on record?
**A.** inconclusive [inhibitor, full curve, poor fit]

**Q.** Which Potency does the source give for `CCOC(=O)c1cnc2ccc(C(=O)OC)cc2c1Nc1ccc(OCc2ccccc2Cl)cc1` here?
**A.** inactive

**Q.** How did the Potency turn out when `COC(=O)c1sccc1NC(=S)N(C)C1CCCCC1` was run?
**A.** inactive

**Q.** Which Potency does the source give for `CCCCC(=O)Nc1ccc(C)c(O)c1` here?
**A.** inconclusive [inhibitor, full curve, poor fit]

**Q.** For `O=CNn1cnc2c(oc3nc(-c4ccccc4)cc(-c4ccco4)c32)c1=O`, which Potency is on record?
**A.** inactive

**Q.** `O=C(CSc1nc(C2CCCCC2)n(-c2ccccc2)n1)NCCN1C(=O)CSC1=O` was tested. Which Potency did it give?
**A.** inconclusive [inhibitor, single point]

**Q.** For `C=CCNC(=O)C(C(=O)OCC)C1CCCCC1` (configuration not stated), which Potency is on record?
**A.** inconclusive [inhibitor, full curve, poor fit]

**Q.** `CNc1ncc(C(=O)c2ccc(F)cc2)s1` was tested. Which Potency did it give?
**A.** inactive

**Q.** How did the Potency turn out when `CN(C)c1ccc(C(=O)OCC(=O)NCCNC(=O)COC(=O)c2ccc(N(C)C)cc2)cc1` was run?
**A.** inactive

**Q.** How did the Potency turn out when `N=P(N1CCOCC1)(N1CCOCC1)C12CC3CC(CC(C3)C1)C2` was run?
**A.** inconclusive [inhibitor, full curve, poor fit]

**Q.** How did the Potency turn out when `CCOC(=O)c1c(C)[nH]c(C(=O)CSc2ccccc2)c1C` was run?
**A.** inconclusive [inhibitor, full curve, poor fit]

**Q.** How did the Potency turn out when `Cc1cc(=O)oc(C)c1C(=O)N1CCc2c([nH]c3ccccc23)C1C(C)C` (configuration not stated) was run?
**A.** inconclusive [inhibitor, full curve, poor fit]

**Q.** How did the Potency turn out when `O=C(CSc1nnnn1-c1ccccc1)Nc1ncc(Cc2ccccc2Cl)s1` was run?
**A.** inactive

**Q.** With `CCOC(=O)C1=C(COC(=O)c2ncc(Cl)c(Cl)c2Cl)NC(=O)NC1C` (configuration not stated) as the compound, how does the Potency read?
**A.** inconclusive [inhibitor, full curve, poor fit]

**Q.** Which Potency does the source give for `CC(C)Oc1ccc(CNC(=O)c2cnc3sc(N4CCCC4)nn3c2=O)cc1` here?
**A.** inactive

**Q.** `CCOC(=O)NNC(=O)C1CCC(C)CC1` (configuration not stated) was tested. Which Potency did it give?
**A.** inconclusive [inhibitor, single point]

**Q.** `CC(=O)N1N=C(c2cccc([N+](=O)[O-])c2)OC1c1cccc(Br)c1` (configuration not stated) was tested. Which Potency did it give?
**A.** inconclusive [inhibitor, full curve, poor fit]

**Q.** For `O=C(CCn1c(SCC(=O)NCc2ccco2)nc2ccccc2c1=O)NCCc1ccccc1`, which Potency is on record?
**A.** inconclusive [inhibitor, full curve, poor fit]

**Q.** How did the Potency turn out when `CC(C)CCN=CC1=C(O)CC(c2ccccc2)CC1=O` (configuration not stated) was run?
**A.** inactive

**Q.** `C/C(=N\NC(=O)c1ccc(Cl)cc1)c1ccc(N2CCOCC2)cc1` was tested. Which Potency did it give?
**A.** inconclusive [inhibitor, full curve]

**Q.** `COc1cc(Cl)c(C)cc1NC(=O)CSc1cc(Cl)ccc1Cl` was tested. Which Potency did it give?
**A.** inconclusive [inhibitor, full curve, poor fit]

**Q.** With `COc1ccc(-c2nn(-c3ccccc3)cc2/C=N/NS(=O)(=O)c2ccccc2)cc1` as the compound, how does the Potency read?
**A.** inactive

**Q.** `COCCCNC(=O)NC(=O)c1ccccc1` was tested. Which Potency did it give?
**A.** inconclusive [inhibitor, partial curve]

**Q.** With `CC(Oc1ccc(Cl)cc1)C(=O)Nc1ncccn1` (configuration not stated) as the compound, how does the Potency read?
**A.** inconclusive [inhibitor, full curve, poor fit]

**Q.** `C=CCNC(=O)c1sccc1Oc1ccc(F)cc1[N+](=O)[O-]` was tested. Which Potency did it give?
**A.** inconclusive [inhibitor, full curve, poor fit]

**Q.** How did the Potency turn out when `COc1ccc(-c2nc(CS(=O)CC(=O)NCc3ccco3)c(C)o2)cc1OC` (configuration not stated) was run?
**A.** inconclusive [inhibitor, full curve, poor fit]

**Q.** For `Cn1cc(SCC(N)=O)c2ccccc21`, which Potency is on record?
**A.** inconclusive [inhibitor, full curve]

**Q.** With `O=C(c1ccc(Cl)cc1)c1nnc(-c2ccncc2)o1` as the compound, how does the Potency read?
**A.** inconclusive [inhibitor, full curve]

**Q.** For `CCOC(=O)Cn1nnc(-c2ccc(S(C)(=O)=O)cc2)n1`, which Potency is on record?
**A.** inconclusive [inhibitor, full curve, poor fit]

**Q.** Which Potency does the source give for `COc1ccc(C(=O)NC2CC2)cc1OC1CCN(Cc2ccc(NC(C)=O)cc2)CC1` here?
**A.** inconclusive [inhibitor, partial curve]

**Q.** For `COc1cc(OC)c(C(=O)Nc2cc(Cl)ccc2-n2cncn2)cc1OC`, which Potency is on record?
**A.** inactive

**Q.** Which Potency does the source give for `CCOC(=O)C1=C(N)Oc2cc(O)ccc2C1c1cccc([N+](=O)[O-])c1` (configuration not stated) here?
**A.** inactive

**Q.** With `CC1CCC(NS(=O)(=O)c2ccc3c(c2)n(C)c(=O)c(=O)n3C)CC1` (configuration not stated) as the compound, how does the Potency read?
**A.** inconclusive [inhibitor, single point]

**Q.** `CC(=O)Nc1nc2cc3c(cc2s1)OCO3` was tested. Which Potency did it give?
**A.** inactive

**Q.** Which Potency does the source give for `NC(=O)c1c(-c2ccc(Cl)cc2Cl)csc1NC(=O)Cc1ccccc1` here?
**A.** inconclusive [inhibitor, partial curve, poor fit]

**Q.** How did the Potency turn out when `CCOc1ccc(NC(=O)CSc2nc3ccccc3c(=O)n2Cc2cccs2)cc1` was run?
**A.** inconclusive [inhibitor, full curve, poor fit]

**Q.** `CCCCn1nnnc1NCc1ccc(OC)c(OC)c1` was tested. Which Potency did it give?
**A.** inconclusive [inhibitor, partial curve]

**Q.** `Cc1ccc(-c2cc(C(=O)OCn3nnc4ccccc4c3=O)c3ccccc3n2)cc1` was tested. Which Potency did it give?
**A.** inconclusive [inhibitor, full curve]
